# In the supplement of paper PMC8728848:
# This is one part of the list.
# B1: Gal 3 (Homo sapiens), P17931 (protein)
# chain: MADNFSLHDALSGSGNPNPQGWPGAWGNQPAGAGGYPGASYPGAYPGQAPPGAYPGQAPPGAYHGAPGAYPGAPAPGVYPGPPSGPGAYPSSGQPSAPGAYPATGPYGAPAGPLIVPYNLPLPGGVVPRMLITILGTVKPNANILDFQRGNDVAFHFNPRFNENNRRVIVCNTKLDNNWGREEIQSVFPFESGKPFKIQVLVEPDHFKVAVNDAHLLQYNHRVKKLNEISKLGISGDIDLTSASYTMI
# What was measured:
# Assay in all cases: glycan array binding signal (z-score within array); higher = stronger binding
# Details in all cases: glycan notation: IUPAC condensed, linker removed; mutation: R186I
# [1] = target: Gal(b1-4)GlcNAc(a1-6)Gal(b1-4)GlcNAc
# Summary of the method: (§1)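 From the Consortium for Functional Glycomics database, 3228 arrays were curated, keeping only those whose protein sequence was available. Binding is given as a within-array Z-score averaged across arrays sharing a protein sequence and across linkers. Negative Z-scores can be read as non-binding.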
# [2] = target: Gal(b1-4)GlcNAc(b1-2)Man(a1-3)Man(b1-4)GlcNAc(b1-4)GlcNAc
# Summary of the method: as §1
# [3] = target: Gal(b1-4)GlcNAc(b1-2)Man(a1-3)[Gal(b1-4)GlcNAc(b1-2)Man(a1-6)]Man(b1-4)GlcNAc(b1-4)GlcNAc
# Summary of the method: as §1
# [4] = target: Gal(b1-4)GlcNAc(b1-2)Man(a1-3)[Gal(b1-4)GlcNAc(b1-2)Man(a1-6)]Man(b1-4)GlcNAc(b1-4)[Fuc(a1-6)]GlcNAc
# Summary of the method: as §1
# [5] = target: Gal(b1-4)GlcNAc(b1-2)Man(a1-3)[GlcNAc(b1-2)Man(a1-6)]Man(b1-4)GlcNAc(b1-4)GlcNAc
# Summary of the method: as §1
# [6] = target: Gal(b1-4)GlcNAc(b1-2)Man(a1-3)[Man(a1-6)]Man(b1-4)GlcNAc(b1-4)GlcNAc
# Summary of the method: as §1
# [7] = target: Gal(b1-4)GlcNAc(b1-2)Man(a1-6)Man(b1-4)GlcNAc(b1-4)GlcNAc
# Summary of the method: as §1
# [8] = target: Gal(b1-4)GlcNAc(b1-2)Man(a1-6)[GlcNAc(b1-2)Man(a1-3)]Man(b1-4)GlcNAc(b1-4)GlcNAc
# Summary of the method: as §1
# [9] = target: Gal(b1-4)GlcNAc(b1-2)Man(a1-6)[Man(a1-3)]Man(b1-4)GlcNAc(b1-4)GlcNAc
# Summary of the method: as §1
# [10] = target: Gal(b1-4)GlcNAc(b1-2)[Gal(b1-4)GlcNAc(b1-4)]Man(a1-3)[Gal(b1-4)GlcNAc(b1-2)Man(a1-6)]Man(b1-4)GlcNAc(b1-4)GlcNAc
# Summary of the method: as §1
# [11] = target: Gal(b1-4)GlcNAc(b1-2)[Gal(b1-4)GlcNAc(b1-4)]Man(a1-3)[Gal(b1-4)GlcNAc(b1-2)[Gal(b1-4)GlcNAc(b1-6)]Man(a1-6)]Man(b1-4)GlcNAc(b1-4)GlcNAc
# Summary of the method: as §1
# [12] = target: Gal(b1-4)GlcNAc(b1-3)Gal(b1-3)GlcNAc
# Summary of the method: as §1
# [13] = target: Gal(b1-4)GlcNAc(b1-3)Gal(b1-4)Glc
# Summary of the method: as §1
# [14] = target: Gal(b1-4)GlcNAc(b1-3)Gal(b1-4)GlcNAc
# Summary of the method: as §1
# [15] = target: Gal(b1-4)GlcNAc(b1-3)Gal(b1-4)GlcNAc(b1-3)Gal(b1-4)GlcNAc
# Summary of the method: as §1
# [16] = target: Gal(b1-4)GlcNAc(b1-3)Gal(b1-4)[Fuc(a1-3)]GlcNAc(b1-3)Gal(b1-4)[Fuc(a1-3)]GlcNAc
# Summary of the method: as §1
# [17] = target: Gal(b1-4)GlcNAc(b1-3)GalNAc
# Summary of the method: as §1
# [18] = target: Gal(b1-4)GlcNAc(b1-3)[Gal(b1-4)GlcNAc(b1-6)]Gal(b1-4)GlcNAc
# Summary of the method: as §1
# [19] = target: Gal(b1-4)GlcNAc(b1-3)[Gal(b1-4)GlcNAc(b1-6)]GalNAc
# Summary of the method: as §1
# [20] = target: Gal(b1-4)GlcNAc(b1-3)[GlcNAc(b1-6)]Gal(b1-4)GlcNAc
# Summary of the method: as §1
# [21] = target: Gal(b1-4)GlcNAc(b1-6)Gal(b1-4)GlcNAc
# Summary of the method: as §1
# [22] = target: Gal(b1-4)GlcNAc(b1-6)GalNAc
# Summary of the method: as §1
# [23] = target: Gal(b1-4)GlcNAc(b1-6)[Gal(b1-3)]GalNAc
# Summary of the method: as §1
# Gal3S(b1-3)GalNAc = target: Gal3S(b1-3)GalNAc
# Summary of the method: as §1
# Gal3S(b1-3)GlcNAc = target: Gal3S(b1-3)GlcNAc
# Summary of the method: as §1
# [24] = target: Gal3S(b1-3)[Fuc(a1-4)]GlcNAc
# Summary of the method: as §1
# Gal3S(b1-4)Glc = target: Gal3S(b1-4)Glc
# Summary of the method: as §1
# Gal3S(b1-4)Glc6S = target: Gal3S(b1-4)Glc6S
# Summary of the method: as §1
# Gal3S(b1-4)GlcNAc = target: Gal3S(b1-4)GlcNAc
# Summary of the method: as §1
# Gal3S(b1-4)GlcNAc6S = target: Gal3S(b1-4)GlcNAc6S
# Summary of the method: as §1
# [25] = target: Gal3S(b1-4)[Fuc(a1-3)]Glc
# Summary of the method: as §1
# [26] = target: Gal3S(b1-4)[Fuc(a1-3)]Glc6S
# Summary of the method: as §1
# Gal3S4S(b1-4)GlcNAc = target: Gal3S4S(b1-4)GlcNAc
# Summary of the method: as §1
# Gal3S6S(b1-4)GlcNAc = target: Gal3S6S(b1-4)GlcNAc
# Summary of the method: as §1
# Gal3S6S(b1-4)GlcNAc6S = target: Gal3S6S(b1-4)GlcNAc6S
# Summary of the method: as §1
# Gal4S(b1-4)GlcNAc = target: Gal4S(b1-4)GlcNAc
# Summary of the method: as §1
# Gal4S6S(b1-4)GlcNAc = target: Gal4S6S(b1-4)GlcNAc
# Summary of the method: as §1
binder,measurement,setting,value
B1,glycan array binding signal (z-score),[1],-0.165
same,glycan array binding signal (z-score),[2],0.022
same,glycan array binding signal (z-score),[3],-0.039
same,glycan array binding signal (z-score),[4],-0.19
same,glycan array binding signal (z-score),[5],0.079
same,glycan array binding signal (z-score),[6],-0.162
same,glycan array binding signal (z-score),[7],0.13
same,glycan array binding signal (z-score),[8],-0.094
same,glycan array binding signal (z-score),[9],-0.193
same,glycan array binding signal (z-score),[10],-0.118
same,glycan array binding signal (z-score),[11],-0.197
same,glycan array binding signal (z-score),[12],0.065
same,glycan array binding signal (z-score),[13],1.41
same,glycan array binding signal (z-score),[14],0.121
same,glycan array binding signal (z-score),[15],-0.011
same,glycan array binding signal (z-score),[16],-0.1
same,glycan array binding signal (z-score),[17],-0.162
same,glycan array binding signal (z-score),[18],0.077
same,glycan array binding signal (z-score),[19],0.026
same,glycan array binding signal (z-score),[20],-0.076
same,glycan array binding signal (z-score),[21],-0.192
same,glycan array binding signal (z-score),[22],-0.176
same,glycan array binding signal (z-score),[23],-0.148
same,glycan array binding signal (z-score),Gal3S(b1-3)GalNAc,-0.161
same,glycan array binding signal (z-score),Gal3S(b1-3)GlcNAc,-0.144
same,glycan array binding signal (z-score),[24],-0.18
same,glycan array binding signal (z-score),Gal3S(b1-4)Glc,-0.189
same,glycan array binding signal (z-score),Gal3S(b1-4)Glc6S,-0.17
same,glycan array binding signal (z-score),Gal3S(b1-4)GlcNAc,-0.164
same,glycan array binding signal (z-score),Gal3S(b1-4)GlcNAc6S,-0.151
same,glycan array binding signal (z-score),[25],-0.171
same,glycan array binding signal (z-score),[26],-0.106
same,glycan array binding signal (z-score),Gal3S4S(b1-4)GlcNAc,-0.188
same,glycan array binding signal (z-score),Gal3S6S(b1-4)GlcNAc,-0.162
same,glycan array binding signal (z-score),Gal3S6S(b1-4)GlcNAc6S,-0.183
same,glycan array binding signal (z-score),Gal4S(b1-4)GlcNAc,-0.189
same,glycan array binding signal (z-score),Gal4S6S(b1-4)GlcNAc,-0.177
